This note sets out measurements from the supplement of paper PMC4967469.

By IC50 is meant the dose at which the fit gives 50% viability; fits outside the tested doses are given as limits. For AUC the same curve is integrated over the 256-fold range of doses and scaled to a fraction; it is 1 without any effect and falls as sensitivity rises. For some of these results: Any top dose called inferred was derived from the fitted curves, not read from the paper. For some of these results: Where an entry number is given, a second screen of the drug exists; the two often differ.

Common to all, as to test: Viability of human cancer cell lines after 72 h of drug (GDSC screen)
Compound in one assay: CC(C)c1ccccc1Cc1cc(C(=O)Nc2ccc(S(=O)(=O)c3ccccc3C(C)(C)C)cc2)c(O)c(O)c1O [TW-37]
As to conditions: top dose 5 µM. The protocol:
(§1)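 Human cancer cell lines in 384-well plates, medium with 10% serum, drug for 72 h over a 256-fold dose range (nine 2-fold or five 4-fold steps up to the top dose). Adherent lines were fixed and stained with the nucleic acid dye Syto60, suspension lines read with resazurin; signal relative to control wells, capped at 0 and 100%. One two-parameter sigmoid per drug and line, fitted in a mixed model over all curves with the slope shared within a line.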

Compound in the next assay: CC(O)(CS(=O)(=O)c1ccc(F)cc1)C(=O)Nc1ccc(C#N)c(C(F)(F)F)c1 [Bicalutamide]
As to conditions: top dose inferred. The protocol:
as §1

Compound in the next assay: CCNC(=O)c1noc(-c2cc(C(C)C)c(O)cc2O)c1-c1ccc(CN2CCOCC2)cc1 [AUY922]
As to conditions: top dose 0.256 µM; top dose inferred. The protocol: as §1

Compound in another assay: O=S(=O)(c1ccccc1)N(CC(F)(F)F)c1ccc(C(O)(C(F)(F)F)C(F)(F)F)cc1 [T0901317]
As to conditions: top dose 10.24 µM; top dose inferred. The protocol: as §1

Compound in the next assay: C/C(O)=C(\C#N)C(=O)Nc1cc(Br)ccc1Br [LFM-A13]
As to conditions: top dose 16 µM; top dose inferred. Here is the method: as §1

Compound in another assay: Cc1cn(-c2cc(NC(=O)c3ccc(C)c(Nc4nccc(-c5cccnc5)n4)c3)cc(C(F)(F)F)c2)cn1 [Nilotinib]
As to conditions: top dose 2 µM. The protocol:
as §1

Compound in another assay: S=C(NCc1ccc2c(c1)OCO2)N1CCN(c2ncnc3c2oc2ccccc23)CC1 [MP470]
As to conditions: top dose 20 µM; top dose inferred. Here is the method:
as §1

Compound in another assay: Cc1ccc(Nc2cc(-c3cccc(N4C(=O)c5ccccc5C4=O)c3)ncn2)cc1NS(C)(=O)=O [KIN001-270]
As to conditions: top dose 20 µM; top dose inferred. Here is the method: as §1

Compound in a further assay: Nc1ccn([C@@H]2O[C@H](CO)[C@@H](O)C2(F)F)c(=O)n1 [Gemcitabine]
As to conditions: top dose 1.024 µM. Here is the method: as §1

The mark [1] stands for this setting: top dose 1.024 µM, screen: GDSC drug entry 150.
[2] abbreviates: top dose 10 µM, screen: GDSC drug entry 1502.

As for COLO-679 (melanoma, adherent), the AUC with TW-37 is 0.488; with Bicalutamide (setting [1]), 0.974; in the assay with Bicalutamide (setting [2]) it was 0.967; in the assay with AUY922, 0.579; with T0901317 it was 0.982; with LFM-A13, 0.91. The AUC in the assay with Nilotinib was 0.929; in the assay with MP470 it was 0.954; in the assay with KIN001-270, 0.976; in the assay with Gemcitabine, 0.268. Besides, the IC50 in the assay with TW-37 was 289 nM; with Bicalutamide (setting [1]) it was more than 1020 nM; with Bicalutamide (setting [2]), more than 10000 nM; in the assay with AUY922, 27.1 nM; with T0901317, more than 10200 nM; with LFM-A13 it was more than 16000 nM. For the same cell line, the half-inhibitory concentration (IC50) with Nilotinib was more than 2000 nM; with MP470 it was more than 20000 nM; in the assay with KIN001-270, more than 20000 nM; with Gemcitabine, 12.8 nM.
As to 5637 (bladder, adherent), the AUC with TW-37 was determined as 0.601; with Bicalutamide (setting [1]), 0.989; with Bicalutamide (setting [2]), 0.985; with AUY922, 0.528; in the assay with T0901317, 0.989; with LFM-A13, 0.976. Besides, the AUC with Nilotinib amounted to 0.989; with MP470, 0.947; with KIN001-270, 0.984; in the assay with Gemcitabine, 0.743. Further, the IC50 with TW-37 was 574 nM; with Bicalutamide (setting [1]) it was more than 1020 nM; with Bicalutamide (setting [2]), more than 10000 nM; in the assay with AUY922, 19 nM; in the assay with T0901317 it was more than 10200 nM; with LFM-A13, more than 16000 nM. Moreover, the IC50 with Nilotinib was more than 2000 nM; with MP470, more than 20000 nM; with KIN001-270, more than 20000 nM; with Gemcitabine it was 292 nM.
Regarding MFE-280 (endometrium, adherent), the AUC was 0.923 with TW-37; 0.98 with Bicalutamide (setting [1]); 0.888 with AUY922; 0.978 in the assay with T0901317; 0.972 with LFM-A13; 0.982 with Nilotinib. Also, the AUC in the assay with MP470 worked out at 0.92; with KIN001-270, 0.931; with Gemcitabine, 0.913. The IC50 with TW-37 was more than 5000 nM; with Bicalutamide (setting [1]), more than 1020 nM; with AUY922, more than 256 nM; in the assay with T0901317 it was more than 10200 nM; with LFM-A13 it was more than 16000 nM; in the assay with Nilotinib, more than 2000 nM. For the same cell line, the figures for the IC50 with MP470, with KIN001-270 and with Gemcitabine were more than 20000 nM, more than 20000 nM and more than 1020 nM, respectively.
In the case of MKN28 (stomach, adherent), the AUC with TW-37 was 0.653; with Bicalutamide (setting [1]), 0.987; in the assay with AUY922, 0.439; with T0901317, 0.971; in the assay with LFM-A13 it was 0.971; with Nilotinib, 0.982. In addition, the AUC with MP470 came to 0.945; with KIN001-270, 0.971; in the assay with Gemcitabine, 0.894. Also, the IC50 was 838 nM with TW-37; more than 1020 nM with Bicalutamide (setting [1]); 10.9 nM with AUY922; more than 10200 nM in the assay with T0901317; more than 16000 nM with LFM-A13; more than 2000 nM with Nilotinib. For the same cell line, the results for the IC50 with MP470, with KIN001-270 and in the assay with Gemcitabine were more than 20000 nM, more than 20000 nM and more than 1020 nM, respectively.
Turning to HCC1395 (breast, adherent), the AUC in the assay with TW-37 came out at 0.809; with Bicalutamide (setting [1]) it was 0.98; with Bicalutamide (setting [2]) it was 0.977; in the assay with AUY922, 0.935; with T0901317, 0.978; in the assay with LFM-A13, 0.981. The AUC with Nilotinib was 0.973; with MP470, 0.975; with KIN001-270, 0.963; with Gemcitabine, 0.977. Also, the IC50 is 3290 nM with TW-37; more than 1020 nM with Bicalutamide (setting [1]); more than 10000 nM in the assay with Bicalutamide (setting [2]); more than 256 nM in the assay with AUY922; more than 10200 nM with T0901317; more than 16000 nM in the assay with LFM-A13. Further, the IC50 with Nilotinib is more than 2000 nM; with MP470, more than 20000 nM; with KIN001-270, more than 20000 nM; in the assay with Gemcitabine, more than 1020 nM.
As to SK-OV-3 (ovary, adherent), the AUC came out at 0.558 with TW-37; 0.979 with Bicalutamide (setting [1]); 0.95 with Bicalutamide (setting [2]); 0.384 with AUY922; 0.971 with T0901317; 0.935 with LFM-A13. The AUC with Nilotinib was 0.981; with MP470, 0.96; with KIN001-270, 0.964; with Gemcitabine, 0.407. The IC50 with TW-37 is 469 nM; with Bicalutamide (setting [1]), more than 1020 nM; with Bicalutamide (setting [2]), more than 10000 nM; with AUY922, 7.04 nM; with T0901317, more than 10200 nM; in the assay with LFM-A13, more than 16000 nM. Besides, the IC50 is more than 2000 nM with Nilotinib, more than 20000 nM with MP470, more than 20000 nM with KIN001-270 and 33.4 nM with Gemcitabine.
Regarding ACHN (kidney, adherent), the AUC came out at 0.404 in the assay with TW-37; 0.983 with Bicalutamide (setting [1]); 0.952 with Bicalutamide (setting [2]); 0.52 with AUY922; 0.964 with T0901317; 0.97 in the assay with LFM-A13. Moreover, the AUC with Nilotinib amounted to 0.932; in the assay with MP470, 0.916; with KIN001-270, 0.977; with Gemcitabine, 0.048. Besides, the IC50 with TW-37 was 164 nM; in the assay with Bicalutamide (setting [1]), more than 1020 nM; with Bicalutamide (setting [2]) it was more than 10000 nM; in the assay with AUY922 it was 18.3 nM; with T0901317, more than 10200 nM; with LFM-A13 it was more than 16000 nM. Moreover, the IC50 in the assay with Nilotinib was more than 2000 nM; with MP470, more than 20000 nM; in the assay with KIN001-270, more than 20000 nM; with Gemcitabine it was less than 4 nM.
